Assay results as given in PubChem BioAssay AID1347073 (National Center for Advancing Translational Sciences (NCATS), 2019).
Out of some 45,000 compounds screened, about 200 (0.44%) were called active. Roughly 7% stayed inconclusive and do not appear here. Calls follow the shape of the dose curve; as a rule, active = well fitted activation curve with a large enough effect; inconclusive = small, poorly fitted or top-dose-only effect; inactive = no such curve, though single readings can be large or run the other way. This is one part of the list.

Assay: qHTS of TDP-43 Inhibitors: NCGC Sytravon Library Screen; also: 0% is about no effect; nearly all actives have a fitted effect of over 55% in size
Conditions: yeast TDP-43 toxicity rescue, BacTiter-Glo growth, 24 h; series mostly up to 46.1 µM; growth rescue (activation): at the top concentration
Outline: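 TDP-43-expressing yeast, pregrown in raffinose, seeded at OD600 0.02 in galactose medium with compound for 24 hr at 30 deg C. Growth read by BacTiter-Glo luminescence, so rescue of toxicity appears as activation.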

Structure (SMILES)	growth rescue (activation)
CC(=O)c1c(C)oc2ccc(N(C(C)=O)S(=O)(=O)c3cccc4cccnc34)cc12	inactive: -5.81%
CC(=O)c1c(C(C)=O)c(C)n(-c2nc(-c3ccccc3)c(C)s2)c1C	inactive: 28.2%
O=C(Nc1nnc(CC2=CCCCC2)s1)Nc1ccccc1F	inactive: 17.4%
Cc1ccc(S(=O)(=O)N2CCCCC2)cc1NC(=O)CSc1ccc2c(c1)OCCO2	inactive: 19.5%
CN1CCCCCC1C(=O)N1CCC(N2CCC(C(=O)N3CCOCC3)CC2)CC1 (centres undefined)	inactive: 4.36%
Cc1ccc(S(=O)(=O)NCc2ccncc2)cc1C	inactive: -0.618%
O=C(NC1CCCCC1)C1CC(=O)N(c2cccc([N+](=O)[O-])c2)C1 (centres undefined)	inactive: -20.7%
CC(=O)C1=C(O)C(=O)N(CCNCCO)C1c1ccccc1 (centres undefined)	inactive: -0.54%
O=C(NCc1ccncc1)c1ccc(NS(=O)(=O)c2ccccc2)cc1	inactive: 5.52%
O=C(COc1ccccc1Cl)NCCCNC(=O)c1cnccn1	inactive: 8.1%
CC(=O)NCCc1ccc(C(=O)COC(=O)c2cccn2C)cc1	inactive: 6.05%
CCCCNC(=O)CSc1nc2ccsc2c(=O)n1CCCC(=O)NCCc1ccc(S(N)(=O)=O)cc1	inactive: 10.6%
O=[N+]([O-])c1ccc(C2=Nn3cnnc3SC2)cc1	inactive: 11.2%
CC1Cc2ccccc2N1C(=O)Cn1cnc2ccccc21 (centres undefined)	inactive: 5.8%
OCCC1CCCCN1CC(O)COCc1ccc(Cl)cc1 (centres undefined)	inactive: -17.7%
CCOC(=O)c1cc(-c2ccc(OC)cc2)nc2c1c(C)nn2CCC(N)=S	inactive: 23%
Cc1cc(C)c(NC(=O)C2CCN(c3nc4ccccc4n4cccc34)CC2)c(C)c1	inactive: 7.35%
NC(N)=NN=C1CCC(c2ccccc2)CC1 (centres undefined)	inactive: -18.6%
CCC(=O)Nc1cc(C(=O)O)ccc1Sc1ccc(Cl)cc1	inactive: -8.86%
Cc1c([N+](=O)[O-])cc(C(=O)Nc2ccc(NC(=O)c3ccco3)cc2)cc1[N+](=O)[O-]	inactive: 5.11%
O=C(O)CCCC(=O)Nc1cc([N+](=O)[O-])ccc1O	inactive: -2.68%
CCN(CC)S(=O)(=O)c1ccc2c(c1)N(CC(=O)Nc1ccccc1F)C(=O)C1CCCN21 (centres undefined)	inactive: -1.38%
Nc1ccc(CSc2ccc(Cl)cc2)cc1	inactive: -31.1%
O=C1c2ccccc2NC(c2cccc(O)c2)N1NS(=O)(=O)c1ccccc1 (centres undefined)	inactive: -20.3%
O=C(O)CSc1nnc(COc2cccc3ccccc23)n1Cc1ccccc1	inactive: -0.724%
Cc1nc2ccccc2c(=O)n1NC(=O)C1CCC(C(C)(C)C)CC1 (centres undefined)	inactive: -1.13%
O=C(CCc1c[nH]c2ccccc12)NCCc1ccc2c(c1)OCCO2	inactive: 11.6%

Structure (SMILES)	growth rescue (activation)
CCOc1ccc(C(=O)Nc2cccc(-c3nc4ccccc4[nH]3)c2C)cc1[N+](=O)[O-]	inactive: 2.01%
COC(=O)c1ccc2c(c1)NC(=O)C(N(CC(C)C)CC(C)C)S2 (centres undefined)	inactive: 6.56%
Cc1ccccc1C(=O)N1CCC(C(=O)NC2CCCCC2)CC1	inactive: 14.4%
C=CCOc1c(CNc2ccc(C(=O)O)cc2)cccc1OC	inactive: 21.4%
CN(CC(=O)Nc1ccc(F)cc1)c1ccc(S(=O)(=O)N2CCCCC2)cc1[N+](=O)[O-]	inactive: 11.8%
Cc1ccc(N2CCN(C(=O)N3CCOCC3)CC2)cc1C	inactive: -7.29%
CCOc1ccccc1NC(=O)CSc1nncc2ccccc12	inactive: -16.7%
O=C(N/N=C/c1cc([N+](=O)[O-])ccc1O)NC12CC3CC(CC(C3)C1)C2	inactive: 3.01%
O=C(Nc1cccc(S(=O)(=O)Nc2ccccc2F)c1)c1ccc2ccccc2n1	inactive: -30.5%
CC(C)N(C(=S)NC1CC2CCC1C2)c1ccccc1 (centres undefined)	inactive: 28.2%
O=C(COc1ccccc1Cl)Nc1nc(-c2ccncc2)cs1	inactive: 17.8%
COc1ccc(CCN2C(=O)NC(NC(C)=O)(C(F)(F)F)C2=O)cc1OC (centres undefined)	inactive: -3.02%
COc1ccc(CN2CN(S(=O)(=O)c3ccccc3)c3nc4ccccc4nc32)cc1	inactive: 10.4%
O=C(CSc1n[nH]c(-c2ccccc2O)n1)NC1CCCCC1	inactive: -21.1%
CC1CCCCN1C(=O)c1cc2c(=O)n3ccccc3nc2s1 (centres undefined)	inactive: 12.9%
CN(C(=O)CSc1nnc(-c2ccco2)n1C)C1CCCCC1	inactive: 1.56%
COc1ccc(CNC(=O)c2cccnc2Sc2ccc(C)c(C)c2)cc1	inactive: -2.75%
CCN(C(=O)COC(=O)c1cc(OC)ccc1Br)C1CCS(=O)(=O)C1 (centres undefined)	inactive: -3.11%
CSCc1ccc(C(=O)Nc2cc(C)cc(C)c2)cc1	inactive: 17%
Cc1ccc(NCc2cccn2-c2nnc(N3CCC(C(=O)NCCC(C)C)CC3)s2)cc1	inactive: 6.44%
Cc1ccc(S(=O)(=O)NCc2ccc(C(=O)NCCN(Cc3ccccc3)C(C)C)cc2)cc1	inactive: -1.38%
N/C(Cc1ccc(Cl)cc1Cl)=N\OC(=O)c1ccc(Br)o1	inactive: -93.2%
COc1ccc(C(=O)N2CCC(n3c(C)nc4cc(F)ccc43)CC2)cc1	inactive: 3.81%
CCOC(=O)/C(C)=N/Nc1nc(-c2ccc(NC(C)=O)cc2)cs1	inactive: 7%
CCOC(=O)C(=O)N1c2ccccc2C(N(C(=O)C(=O)OCC)c2ccccc2)CC1C (centres undefined)	inactive: 16.7%
Cc1ccc(CN2CCNC(=O)C2CC(=O)N(C)CCc2cnn(C)c2)cc1 (centres undefined)	inactive: 20.3%
COc1ccc(NC(=O)c2n[nH]c(=O)c3ccccc23)cc1S(=O)(=O)N1CCCCC1	inactive: -4.11%
